# Patent EP3262942A1, “SELENODIARYLS FOR USE AS MICROBICIDE OR AS MEDICINE” (Evonik Degussa GmbH, priority 2016, dated 2018)
# Test system: S. italica und L. sativum
# Test: Crop plant growth test, summary statement for both crop plants
# Assay type: in vivo
# Experimental: Testsubstanzen und Kontrollen werden auf Filterrondellen in Mikrotiterplatten (48 well) vorgelegt und das verwendete Lösungsmittel (DMSO) über Lyophilisation entfernt. Anschließend werden ca. 12 Samen pro Vertiefung (Setaria italical Lepidium sativum) zugeben, mit 200 µl sterilem Leitungswasser pro Vertiefung versetzt, mit einem Deckel versehen und in einer feuchten Kammer für 4 Tage im Pflanzenbrutschrank inkubiert (16h-Licht-8h-Dunkel-Rhythmus). Die Auswertung des Tests erfolgt optisch (+: mind. 75 % Wachstumshemmung im Vergleich zur Kontrolle, -: weniger als 75 % Wachstumshemmung im Vergleich zur Kontrolle.
row,SMILES,Effekt auf die getesteten Nutzpflanzen (S. italica und L. sativum)
1,"Cc1cc(Cl)cc([Se]c2cc(Cl)cc(C)c2O)c1O [Verbindung 22, Bis(3-chlor-6-hydroxy-5-methylphenyl)selen]",keine Schädigung von Nutzpflanzen
2,"Cc1cc(C)c(O)c([Se]c2c(C)c(C)cc(C)c2O)c1C [Verbindung 17, Bis(2-hydroxy-3,5,6-trimethylphenyl)selen]",wachstumshemmenden Effekt
3,"Cc1cc(Br)c(O)c([Se]c2cc(C)cc(Br)c2O)c1 [Verbindung 23, Bis(3-brom-2-hydroxy-5-methylphenyl)selen]",keine Schädigung von Nutzpflanzen
4,"Cc1cc([Se]c2cc(C)c(O)c(C)c2)cc(C)c1O [Verbindung 19, Bis(3,5-dimethyl-4-hydroxyphenyl)selen]",wachstumshemmenden Effekt
5,"Oc1c(F)cc(F)cc1[Se]c1cc(F)cc(F)c1O [Verbindung 25, Bis(3,5-difluoro-2-hydroxyphenyl)selen]",wachstumshemmenden Effekt
6,"Oc1c(Cl)cc(F)cc1[Se]c1cc(F)cc(Cl)c1O [Verbindung 24, Bis(3-chlor-5-fluor-2-hydroxyphenyl)selen]",wachstumshemmenden Effekt
7,"Cc1c(Cl)cc(C(C)C)c(O)c1[Se]c1c(C)c(Cl)cc(C(C)C)c1O [Verbindung 21, Bis(3-chlor-6-hydroxy-5-isopropyl-2-methylphenyl)selen]",keine Schädigung von Nutzpflanzen
